# Some of the results follow.
# How the values were obtained:
# Assay in all cases: glycan array binding signal (z-score within array); higher = stronger binding
# Conditions in all cases: glycan notation: IUPAC condensed, linker removed
# [1] = molecular target: GlcNAc(a1-4)Gal(b1-3)GlcNAc
# Summary of the method: (§1)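 The binding signal is a Z-score computed within each array. Data were drawn from 3228 arrays in the Consortium for Functional Glycomics database, restricted to those with a known protein sequence. Scores were averaged over arrays of the same protein sequence at different concentrations or buffers, and over linkers, and negative values can be taken as non-binding.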
# [2] = molecular target: GlcNAc(a1-4)Gal(b1-4)GalNAc
# Summary of the method: as §1
# [3] = molecular target: GlcNAc(a1-4)Gal(b1-4)GlcNAc
# Summary of the method: as §1
# [4] = molecular target: GlcNAc(a1-4)Gal(b1-4)GlcNAc(b1-3)Gal(b1-4)Glc
# Summary of the method: as §1
# [5] = molecular target: GlcNAc(a1-4)Gal(b1-4)GlcNAc(b1-3)Gal(b1-4)GlcNAc
# Summary of the method: as §1
# [6] = molecular target: GlcNAc(a1-4)Gal(b1-4)GlcNAc(b1-3)Gal(b1-4)GlcNAc(b1-3)Gal(b1-4)GlcNAc
# Summary of the method: as §1
# [7] = molecular target: GlcNAc(a1-4)Gal(b1-4)GlcNAc(b1-3)Gal(b1-4)[Fuc(a1-3)]GlcNAc(b1-3)Gal(b1-4)[Fuc(a1-3)]GlcNAc
# Summary of the method: as §1
# [8] = molecular target: GlcNAc(a1-6)Gal(b1-4)GlcNAc
# Summary of the method: as §1
# [9] = molecular target: GlcNAc(b1-2)Gal(b1-3)GalNAc
# Summary of the method: as §1
# [10] = molecular target: GlcNAc(b1-2)Man(a1-3)[GlcNAc(b1-2)Man(a1-6)]Man(b1-4)GlcNAc(b1-4)GlcNAc
# Summary of the method: as §1
# [11] = molecular target: GlcNAc(b1-2)Man(a1-3)[GlcNAc(b1-2)Man(a1-6)]Man(b1-4)GlcNAc(b1-4)[Fuc(a1-6)]GlcNAc
# Summary of the method: as §1
# [12] = molecular target: GlcNAc(b1-2)Man(a1-3)[GlcNAc(b1-4)][GlcNAc(b1-2)Man(a1-6)]Man(b1-4)GlcNAc(b1-4)GlcNAc
# Summary of the method: as §1
# [13] = molecular target: GlcNAc(b1-2)Man(a1-3)[GlcNAc(b1-4)][GlcNAc(b1-2)Man(a1-6)]Man(b1-4)GlcNAc(b1-4)[Fuc(a1-6)]GlcNAc
# Summary of the method: as §1
# [14] = molecular target: GlcNAc(b1-2)[GlcNAc(b1-4)]Man(a1-3)[GlcNAc(b1-2)Man(a1-6)]Man(b1-4)GlcNAc(b1-4)GlcNAc
# Summary of the method: as §1
# [15] = molecular target: GlcNAc(b1-2)[GlcNAc(b1-4)]Man(a1-3)[GlcNAc(b1-4)][GlcNAc(b1-2)Man(a1-6)]Man(b1-4)GlcNAc(b1-4)GlcNAc
# Summary of the method: as §1
# [16] = molecular target: GlcNAc(b1-2)[GlcNAc(b1-4)]Man(a1-3)[GlcNAc(b1-4)][GlcNAc(b1-2)[GlcNAc(b1-6)]Man(a1-6)]Man(b1-4)GlcNAc(b1-4)GlcNAc
# Summary of the method: as §1
# [17] = molecular target: GlcNAc(b1-2)[GlcNAc(b1-4)]Man(a1-3)[GlcNAc(b1-4)][GlcNAc(b1-2)[GlcNAc(b1-6)]Man(a1-6)]Man(b1-4)GlcNAc(b1-4)[Fuc(a1-6)]GlcNAc
# Summary of the method: as §1
# [18] = molecular target: GlcNAc(b1-2)[GlcNAc(b1-6)]Man(a1-6)[GlcNAc(b1-2)Man(a1-3)]Man(b1-4)GlcNAc(b1-4)GlcNAc
# Summary of the method: as §1
# [19] = molecular target: GlcNAc(b1-2)[GlcNAc(b1-6)]Man(a1-6)[GlcNAc(b1-2)Man(a1-3)]Man(b1-4)GlcNAc(b1-4)[Fuc(a1-6)]GlcNAc
# Summary of the method: as §1
# [20] = molecular target: GlcNAc(b1-2)[GlcNAc(b1-6)]Man(a1-6)[GlcNAc(b1-4)][GlcNAc(b1-2)Man(a1-3)]Man(b1-4)GlcNAc(b1-4)GlcNAc
# Summary of the method: as §1
# GlcNAc(b1-3)Fuc = molecular target: GlcNAc(b1-3)Fuc
# Summary of the method: as §1
# GlcNAc(b1-3)Gal = molecular target: GlcNAc(b1-3)Gal
# Summary of the method: as §1
# [21] = molecular target: GlcNAc(b1-3)Gal(b1-3)GalNAc
# Summary of the method: as §1
# GlcNAc(b1-3)Gal(b1-4)Glc = molecular target: GlcNAc(b1-3)Gal(b1-4)Glc
# Summary of the method: as §1
# [22] = molecular target: GlcNAc(b1-3)Gal(b1-4)GlcNAc
# Summary of the method: as §1
# [23] = molecular target: GlcNAc(b1-3)Gal(b1-4)GlcNAc(b1-2)Man(a1-3)[GlcNAc(b1-3)Gal(b1-4)GlcNAc(b1-2)Man(a1-6)]Man(b1-4)GlcNAc(b1-4)GlcNAc
# Summary of the method: as §1
# [24] = molecular target: GlcNAc(b1-3)Gal(b1-4)GlcNAc(b1-2)Man(a1-3)[GlcNAc(b1-3)Gal(b1-4)GlcNAc(b1-2)Man(a1-6)]Man(b1-4)GlcNAc(b1-4)[Fuc(a1-6)]GlcNAc
# Summary of the method: as §1
# [25] = molecular target: GlcNAc(b1-3)Gal(b1-4)GlcNAc(b1-2)[GlcNAc(b1-3)Gal(b1-4)GlcNAc(b1-6)]Man(a1-6)[GlcNAc(b1-3)Gal(b1-4)GlcNAc(b1-2)Man(a1-3)]Man(b1-4)GlcNAc(b1-4)GlcNAc
# Summary of the method: as §1
# [26] = molecular target: GlcNAc(b1-3)Gal(b1-4)GlcNAc(b1-3)Gal(b1-4)GlcNAc
# Summary of the method: as §1
# [27] = molecular target: GlcNAc(b1-3)Gal(b1-4)GlcNAc(b1-3)Gal(b1-4)GlcNAc(b1-2)Man(a1-3)[GlcNAc(b1-3)Gal(b1-4)GlcNAc(b1-3)Gal(b1-4)GlcNAc(b1-2)Man(a1-6)]Man(b1-4)GlcNAc(b1-4)GlcNAc
# Summary of the method: as §1
# [28] = molecular target: GlcNAc(b1-3)Gal(b1-4)GlcNAc(b1-3)Gal(b1-4)GlcNAc(b1-2)Man(a1-3)[GlcNAc(b1-3)Gal(b1-4)GlcNAc(b1-3)Gal(b1-4)GlcNAc(b1-2)Man(a1-6)]Man(b1-4)GlcNAc(b1-4)[Fuc(a1-6)]GlcNAc
# Summary of the method: as §1
# [29] = molecular target: GlcNAc(b1-3)Gal(b1-4)GlcNAc(b1-3)Gal(b1-4)GlcNAc(b1-2)[GlcNAc(b1-3)Gal(b1-4)GlcNAc(b1-3)Gal(b1-4)GlcNAc(b1-6)]Man(a1-6)[GlcNAc(b1-3)Gal(b1-4)GlcNAc(b1-3)Gal(b1-4)GlcNAc(b1-2)Man(a1-3)]Man(b1-4)GlcNAc(b1-4)[Fuc(a1-6)]GlcNAc
# Summary of the method: as §1
# [30] = molecular target: GlcNAc(b1-3)Gal(b1-4)GlcNAc(b1-3)Gal(b1-4)GlcNAc(b1-3)Gal(b1-4)GlcNAc(b1-2)Man(a1-3)[GlcNAc(b1-3)Gal(b1-4)GlcNAc(b1-3)Gal(b1-4)GlcNAc(b1-3)Gal(b1-4)GlcNAc(b1-2)Man(a1-6)]Man(b1-4)GlcNAc(b1-4)GlcNAc
# Summary of the method: as §1
# [31] = molecular target: GlcNAc(b1-3)Gal(b1-4)GlcNAc(b1-3)Gal(b1-4)GlcNAc(b1-3)Gal(b1-4)GlcNAc(b1-2)Man(a1-3)[GlcNAc(b1-3)Gal(b1-4)GlcNAc(b1-3)Gal(b1-4)GlcNAc(b1-3)Gal(b1-4)GlcNAc(b1-2)Man(a1-6)]Man(b1-4)GlcNAc(b1-4)[Fuc(a1-6)]GlcNAc
# Summary of the method: as §1
# [32] = molecular target: GlcNAc(b1-3)Gal(b1-4)GlcNAc(b1-3)Gal(b1-4)GlcNAc(b1-3)Gal(b1-4)GlcNAc(b1-2)[GlcNAc(b1-3)Gal(b1-4)GlcNAc(b1-3)Gal(b1-4)GlcNAc(b1-3)Gal(b1-4)GlcNAc(b1-6)]Man(a1-6)[GlcNAc(b1-3)Gal(b1-4)GlcNAc(b1-3)Gal(b1-4)GlcNAc(b1-3)Gal(b1-4)GlcNAc(b1-2)Man(a1-3)]Man(b1-4)GlcNAc(b1-4)[Fuc(a1-6)]GlcNAc
# Summary of the method: as §1
# [33] = molecular target: GlcNAc(b1-3)Gal(b1-4)GlcNAc(b1-3)Gal(b1-4)GlcNAc(b1-3)Gal(b1-4)GlcNAc(b1-3)Gal(b1-4)GlcNAc(b1-2)Man(a1-3)[GlcNAc(b1-3)Gal(b1-4)GlcNAc(b1-3)Gal(b1-4)GlcNAc(b1-3)Gal(b1-4)GlcNAc(b1-3)Gal(b1-4)GlcNAc(b1-2)Man(a1-6)]Man(b1-4)GlcNAc(b1-4)GlcNAc
# Summary of the method: as §1
# [34] = molecular target: GlcNAc(b1-3)Gal(b1-4)GlcNAc(b1-3)Gal(b1-4)GlcNAc(b1-3)Gal(b1-4)GlcNAc(b1-3)Gal(b1-4)GlcNAc(b1-2)Man(a1-3)[GlcNAc(b1-3)Gal(b1-4)GlcNAc(b1-3)Gal(b1-4)GlcNAc(b1-3)Gal(b1-4)GlcNAc(b1-3)Gal(b1-4)GlcNAc(b1-2)Man(a1-6)]Man(b1-4)GlcNAc(b1-4)[Fuc(a1-6)]GlcNAc
# Summary of the method: as §1
# [35] = molecular target: GlcNAc(b1-3)Gal(b1-4)GlcNAc(b1-3)Gal(b1-4)GlcNAc(b1-3)Gal(b1-4)GlcNAc(b1-3)Gal(b1-4)GlcNAc(b1-2)[GlcNAc(b1-3)Gal(b1-4)GlcNAc(b1-3)Gal(b1-4)GlcNAc(b1-3)Gal(b1-4)GlcNAc(b1-3)Gal(b1-4)GlcNAc(b1-6)]Man(a1-6)[GlcNAc(b1-3)Gal(b1-4)GlcNAc(b1-3)Gal(b1-4)GlcNAc(b1-3)Gal(b1-4)GlcNAc(b1-3)Gal(b1-4)GlcNAc(b1-2)Man(a1-3)]Man(b1-4)GlcNAc(b1-4)[Fuc(a1-6)]GlcNAc
# Summary of the method: as §1
binder,measurement,setting,value
GS7807H-bfa-490-18-490 (Bacteroides fragilis) (protein) GNLEEMNIDPDNATQTHPKLLLTQICMNAFKRGTDGMYATKKVIQADGESADQYYKWTRGSFGYYDNLRNVQKMGEEAERVNAPVYTALTKFFRAYYFYELTLRFGDIPYSQALKGEKEEIYTPEYDAQEDVFAGILQELREADEILANDASVIDGDIIYNGNSTQWRKLINSFRLKVLMTLSNHTTVGNINIASEFKNIATNSPLMNSLADNGQLVYLDQQGNRYPQFNAQWSGYYMDDTFIQRMRERRDPRLFIFSAQTNKGKTEGKPIDDFSSYEGGDPAAPYSDAIIKVSEGTISPINDRFRTDPIVEPTMLMGYAELQQILAEAVVRGWISGNAQTYYEKGIRASFSFYETHAKDYAGYLNENAVAQYLKEPLVDFTQASGTEEQIERIIMQKYLVTFYQGNWDSFYEQLRTGYPDFRRPAGTEIPKRWMYPQGEYDNNGTNVETAITRQFGAGNDKINQATWWQKKS,glycan array binding signal (z-score),[1],-0.192
same,glycan array binding signal (z-score),[2],-0.706
same,glycan array binding signal (z-score),[3],-0.197
same,glycan array binding signal (z-score),[4],-0.187
same,glycan array binding signal (z-score),[5],-0.181
same,glycan array binding signal (z-score),[6],-0.424
same,glycan array binding signal (z-score),[7],-0.118
same,glycan array binding signal (z-score),[8],0.08
same,glycan array binding signal (z-score),[9],-0.257
same,glycan array binding signal (z-score),[10],-0.003
same,glycan array binding signal (z-score),[11],0.507
same,glycan array binding signal (z-score),[12],-0.317
same,glycan array binding signal (z-score),[13],-0.103
same,glycan array binding signal (z-score),[14],-0.442
same,glycan array binding signal (z-score),[15],-0.221
same,glycan array binding signal (z-score),[16],-0.583
same,glycan array binding signal (z-score),[17],-0.453
same,glycan array binding signal (z-score),[18],-0.528
same,glycan array binding signal (z-score),[19],-0.046
same,glycan array binding signal (z-score),[20],-0.365
same,glycan array binding signal (z-score),GlcNAc(b1-3)Fuc,-0.702
same,glycan array binding signal (z-score),GlcNAc(b1-3)Gal,-0.808
same,glycan array binding signal (z-score),[21],-0.179
same,glycan array binding signal (z-score),GlcNAc(b1-3)Gal(b1-4)Glc,-0.121
same,glycan array binding signal (z-score),[22],-0.554
same,glycan array binding signal (z-score),[23],0.031
same,glycan array binding signal (z-score),[24],0.593
same,glycan array binding signal (z-score),[25],0.614
same,glycan array binding signal (z-score),[26],-0.502
same,glycan array binding signal (z-score),[27],0.6
same,glycan array binding signal (z-score),[28],0.334
same,glycan array binding signal (z-score),[29],-0.421
same,glycan array binding signal (z-score),[30],0.156
same,glycan array binding signal (z-score),[31],1.34
same,glycan array binding signal (z-score),[32],0.708
same,glycan array binding signal (z-score),[33],0.319
same,glycan array binding signal (z-score),[34],4.28
same,glycan array binding signal (z-score),[35],0.107
